Values joined by “and” are separate entries in the source; they are usually repeats but may differ in a detail not shown here. Equal entries are not always repeated. The campaign covered roughly 16,000 compounds. About 40 (0.2%) were called active. About 1% were inconclusive and are not listed. Calls come from the whole dose curve; as a rule, active = well fitted activation curve with a large enough effect; inconclusive = small, poorly fitted or top-dose-only effect, or another doubt; inactive = no such curve, though single readings can be large or run the other way. This is one part of the list.
These molecules were tested against Rap guanine nucleotide exchange factor 4 (Homo sapiens) (UniProt Q8WZA2) (assay: Validation qHTS for agonist of cAMP-regulated guanine nucleotide exchange factor 4 (EPAC2)). Conditions: EPAC2 Rap1B BODIPY-GDP exchange, fluorescence; activation: active compounds read high.
UniProt Q8WZA2, sequence (Q8WZA2 whole entry, looked up): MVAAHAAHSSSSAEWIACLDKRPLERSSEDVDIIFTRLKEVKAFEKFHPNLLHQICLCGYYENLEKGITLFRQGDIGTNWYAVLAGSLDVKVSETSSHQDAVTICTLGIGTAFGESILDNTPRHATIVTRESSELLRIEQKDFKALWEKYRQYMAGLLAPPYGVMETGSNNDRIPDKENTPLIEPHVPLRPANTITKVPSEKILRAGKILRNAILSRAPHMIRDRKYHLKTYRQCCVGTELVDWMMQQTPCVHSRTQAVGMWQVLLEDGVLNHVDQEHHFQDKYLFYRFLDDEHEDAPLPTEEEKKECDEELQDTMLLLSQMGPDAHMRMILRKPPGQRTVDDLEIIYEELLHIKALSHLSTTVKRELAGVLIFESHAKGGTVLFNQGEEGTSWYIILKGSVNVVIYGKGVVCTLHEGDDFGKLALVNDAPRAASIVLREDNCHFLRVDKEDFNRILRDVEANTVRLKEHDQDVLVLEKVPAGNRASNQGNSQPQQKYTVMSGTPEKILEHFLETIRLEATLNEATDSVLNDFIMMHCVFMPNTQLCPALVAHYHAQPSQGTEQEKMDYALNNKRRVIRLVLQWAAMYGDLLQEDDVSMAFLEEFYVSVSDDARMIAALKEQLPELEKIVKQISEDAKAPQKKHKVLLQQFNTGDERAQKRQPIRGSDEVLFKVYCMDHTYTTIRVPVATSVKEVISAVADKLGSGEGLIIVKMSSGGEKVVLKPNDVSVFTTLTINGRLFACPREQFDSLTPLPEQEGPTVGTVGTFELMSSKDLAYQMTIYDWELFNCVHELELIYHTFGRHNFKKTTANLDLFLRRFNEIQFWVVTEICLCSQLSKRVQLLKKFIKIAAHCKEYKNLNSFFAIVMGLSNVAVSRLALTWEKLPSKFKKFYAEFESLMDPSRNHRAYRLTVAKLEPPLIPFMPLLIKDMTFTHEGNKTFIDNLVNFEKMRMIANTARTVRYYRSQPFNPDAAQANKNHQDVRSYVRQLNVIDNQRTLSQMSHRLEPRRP
Outline: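 Fluorescent exchange assay: 100 nM EPAC2 with 250 nM RAP1B-BODIPY-GDP and 50 uM GDP; compound added, 5 min at room temperature, then read (ex 480/em 540 nm) every 5 min for 30 min. Normalized to 6.5 mM cAMP agonist control.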
% is set by controls: 0 for no effect and ±100 for the full control effect.
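Note: exchange makes BODIPY-GDP fluorescence drop when released from Rap1B; series mostly up to about 150 µM.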

activation, inactive:
C[C@H]1C=C2C=C[C@H](C)[C@H](CC[C@@H]3C[C@@H](O)CC(=O)O3)[C@H]2[C@@H](OC(=O)[C@@H](C)CCO)C1 -43.7%
COc1ccc(/C=C/c2cc(O)cc(O[C@H]3OC(CO)C(O)C(O)C3O)c2)cc1 (stereo partly drawn) -22.7%
COC(C)C(C(=O)OCC1=CCN2CC[C@H](O)[C@@H]12)C(C)C (stereo partly drawn) -14.1%
CN(C)c1ccc(-c2cc(NCc3cccnc3)ncn2)cc1 -7.87%
Cc1sc2ccccc2[n+]1CC(=O)c1ccc(F)cc1 -10.3%
COc1ccc2[nH]cc(CCNc3ncncc3-c3ccccc3C(F)(F)F)c2c1 -16.9%
NC(N)=Nc1nc(CSCC/C(N)=N\S(N)(=O)=O)cs1 -4.7%
CC(C)=CCCC(C)CCO (stereo not drawn) 4.53%
CCCCC[C@H](O)/C=C/[C@@H]1[C@@H](C/C=C\CCCC(=O)O)[C@@H](O)C[C@@H]1O -3.58%
CN(C)c1cc(-c2cccc(NS(C)(=O)=O)c2)ncn1 -16.6%
CC1OC(OCC2OC(Oc3c(-c4ccc(O)c(O)c4)oc4cc(O)cc(O)c4c3=O)C(O)C(O)C2O)C(O)C(O)C1O (stereo not drawn) -5.62%
C#CCCCCCCCCCCCC(O)CC(O)CO (stereo not drawn) -35.7%
CC[C@H]1OC(=O)[C@H](C)[C@@H](O[C@H]2C[C@@](C)(OC)[C@@H](O)[C@H](C)O2)[C@H](C)[C@@H](O[C@@H]2O[C@H](C)C[C@H](N(C)C)[C@H]2O)[C@](C)(O)C[C@@H](C)[C@@H]2N[C@@H](COCCOC)O[C@@H]([C@H]2C)[C@]1(C)O -12.6%
COc1ccccc1-c1ccnc(-n2ncc(C(=O)NCCc3ccncc3)c2C)n1 -1.92%
COc1ccccc1-n1cc(C(=O)NCCN2Cc3ccccc3OC(c3ccsc3)C2)cn1 (stereo not drawn) -10.8%
COc1ccccc1C(=O)N[C@@H]1c2ccccc2C2(CCN(C(=O)c3ccnn3C)CC2)[C@H]1OC -10.2%
Nc1nc(=S)c2ncn([C@@H]3O[C@H](CO)[C@@H](O)[C@H]3O)c2[nH]1 12.3%
c1csc(CNc2cc(-c3ccoc3)ncn2)c1 0.439%
Cc1cccc(CNc2ncncc2-c2cccc(C#N)c2)c1 -14%
O=C(NCCc1ccccc1)[C@@H]1CC=C[C@@H]2CCN(C3CCCCC3)C(=O)[C@@H]21 -4.2%
C[C@H](CCC(=O)NCC(=O)O)C1CC[C@H]2C3CC[C@@H]4C[C@H](O)CC[C@]4(C)C3C[C@H](O)[C@]12C (stereo partly drawn) -11%
CC(C)NC[C@@H](O)COc1ccc(CCOCC2CC2)cc1 -12.9%
COCc1ccc(CN2Cc3ccccc3OC(c3ccccc3F)C2)o1 (stereo not drawn) 9.71%
COc1ccc(CN2CCC3(CCC(CNC(=O)c4ccco4)O3)CC2)cc1OC (stereo not drawn) -13.9%
CC(C)NCC(O)COc1ccc(COCCOC(C)C)cc1 (stereo not drawn) -8.77% and -33.1%
CN1CCN(c2ncc3nc(-c4ccccc4)c(=O)n(C)c3n2)CC1 3.91%
COc1ccc(-c2cn(Cc3ccc4ccccc4c3)nn2)cc1 -17.9%
Cc1ccsc1C(=O)N(Cc1cc2ccc(F)cc2nc1N1CCC(O)CC1)CC1CCCO1 (stereo not drawn) -3.76%
Cc1nc2cnc(Nc3ccccc3)nc2n(C2CC2)c1=O -1.25%
Cc1c(C(=O)N2CCOc3ccccc3C2)sc2ncnc(NCCCN3CCOCC3)c12 0.543%
CCC(C)C(=O)O[C@H]1C[C@@H](C)C=C2C=C[C@H](C)[C@H](CC[C@@H]3C[C@@H](O)CC(=O)O3)C21 (stereo partly drawn) -10.4%
Cc1ccc(C(=O)Nc2cccc(-c3nc(CNC(=O)C4(C)CC4)c(C)o3)c2)s1 -5.27%
Cc1cc(-c2ccnc(-n3ncc(C(=O)N(C)CC(O)c4ccccc4)c3C)n2)c(C)s1 (stereo not drawn) -20.4%
CCCCCCCCCCCCCCCCCCOC[C@H](COP(=O)([O-])OCC[N+](C)(C)C)OC(C)=O 4.19%
CN1CC[C@H](c2c(O)cc(O)c3c(=O)cc(-c4ccccc4Cl)oc23)[C@H](O)C1 -9.22%
CC(N)=O -7.37%
O=C([C@@H]1C[C@@H](Sc2nc3ccccc3[nH]2)CN1Cc1ccc(C(F)(F)F)cc1)N1CCN(c2ccccc2F)CC1 -21.4%
O=C(NCN1CCOCC1)c1cnccn1 -1%
COc1cc(-c2cc(=O)c3c(O)c(OC)c(OC)c(OC)c3o2)cc(OC)c1OC -13.3%
COc1ncc2nc(-c3cc(F)cc(F)c3)c(=O)n(CCC#N)c2n1 -3.25%
Cc1noc(C)c1C(=O)N1CCC2(CCN(Cc3ccccc3)CC2)CC1 -5.2%
Cc1cnc(-n2ncc(C(=O)NCc3cccnc3)c2C)nc1-c1ccc(F)cc1 -7.19%
Cc1cc([C@](C)(N)C(=O)O)ccc1P(=O)(O)O -14.7%
Cc1ccc(OC[C@H](O)[C@H](C)NC(C)C)c2c1CCC2 -9.4%
N#CCCn1c(=O)c(-c2ccc(F)cc2)nc2cnc(OCc3ccccc3)nc21 -1.82%
O=C(NCc1cccnc1)c1cnn(-c2nccc(-c3cccs3)n2)c1C1CC1 -5.81%
CN(C)C(=O)c1ccc(-c2ccc3ncnc(N4CCOCC4)c3c2)cc1 2.35%
COc1ccc2[nH]cc(CCNc3ncncc3-c3ccccc3Cl)c2c1 -14.1%
Nc1nc(Cl)nc2c1ncn2[C@@H]1O[C@H](CO)[C@@H](O)[C@@H]1F -14.5%
CCCCCCCCCCCCCCCCOCC(CO)OC(C)=O (stereo not drawn) -11.3%
COc1cc2ccc(=O)oc2c(OC)c1OC -15.2%
CC(C)C(=O)OCC(=O)[C@@]12O[C@H](C3CCCCC3)O[C@@H]1C[C@H]1[C@@H]3CCC4=CC(=O)C=C[C@]4(C)[C@H]3[C@@H](O)C[C@@]12C -16.7%
COc1ccc(-c2nc3cnc(N(C)C)nc3n(CCC#N)c2=O)cc1 6.87%
O=c1cc(-c2ccccc2)oc2cc(O[C@@H]3O[C@H](CO)[C@@H](O)[C@H](O)[C@H]3O)c(O)c(O)c12 -8.5%
O=C(Cn1ccnc1[N+](=O)[O-])NCCO -36.8%
COc1ccc(-c2nc3cnc(N(C)C)nc3n(CCc3ccccc3)c2=O)cc1 -5.65%
COc1ccc(-c2nc3cnc(N4CCOCC4)nc3n(CCC#N)c2=O)cc1 0.144%
NC[C@H]1O[C@@H](n2cnc3c(N)ncnc32)[C@H](O)[C@@H]1O -9.49%
CC1(C)C(O)CC[C@]2(C)C1CC[C@@]1(C)C2C(=O)C=C2[C@@H]3C[C@@](C)(C(=O)O)CC[C@@]3(C)CCC21C (stereo partly drawn) -15.2%
Cc1cccc2c(N3CCCC3)nc(CNS(=O)(=O)c3ccccc3Cl)nc12 -2.23%
COc1cccc(Nc2ncc3nc(-c4ccc(F)cc4)c(=O)n(CCC#N)c3n2)c1 22.6%
c1cnc2cc3c(cc2n1)[C@@H]1CNC[C@H]3C1 4.18%
COc1ccccc1-c1cncnc1Nc1ccc(F)cc1 -10.7%
Cc1cccc2cc(CN(CC3CCCO3)C(=O)c3cccc(F)c3)c(N(C)C)nc12 (stereo not drawn) -4.36%
CC1CCC2=C1C[C@H](C(C)(C)O)CC[C@@H]2C (stereo partly drawn) -17.3%
O=C(O)C[C@H]1c2ccccc2S(=O)(=O)N1C1CCCCC1 -11.6%
COc1cccc(Cn2c(=O)c(CCc3ccccc3)nc3cncnc32)c1 10.1%
COc1ccc(-c2cccc3c2OC(CNC(=O)c2ccccc2-n2cccn2)C3)nn1 (stereo not drawn) -4.56%
CN1CCN(c2ncc3nc(-c4cn(C)c5ccccc45)c(=O)n(CCc4ccccc4)c3n2)CC1 -7.5%
O=c1cc(-c2ccccc2O)oc2ccc3ccccc3c12 -4.35%
CC(=O)OCC(COC(C)=O)OC(C)=O -6.06% and -2.83%
Cc1ccccc1N=C(N)Nc1ccccc1C -23.9% and -0.854%
COc1cccc(Cn2c(=O)c(CCc3ccccc3)nc3cnc(N(C)C)nc32)c1 2.14%
COc1ccccc1-c1nc(NCCc2cnc[nH]2)c2ccccc2n1 -4.03%
O=C1CC[C@@H]2C[C@@]3(C[C@@H]4CCN1[C@H]24)Nc1cc([N+](=O)[O-])ccc1NC3=NCc1ccccc1 -23.4%
COc1cc2c(cc1OC)C1CCC3=C([C@H](C)OC3=O)N1CC2 (stereo partly drawn) -11.7%
CN(C)c1ccc(/C=C/c2sc3ccccc3[n+]2CCCCBr)cc1 13.5%
c1ccc(CNc2cc(-c3cccnc3)ncn2)cc1 -6.82%
CC(=O)OCC1=C(C(=O)O)N2C(=O)C(NC(=O)Cc3cccs3)C2SC1 (stereo not drawn) 7.48%
COC(=O)N1CCC2(CC1)CCN(c1cccc(-c3ccccc3)c1)CC2 16.2%
C=C1C(=CC=C2CCC[C@]3(C)[C@@H]([C@H](C)C=C[C@H](C)C(C)C)CC[C@@H]23)C[C@@H](O)C[C@@H]1O -19.6%
Cc1ccccc1C(=O)N1CC/C(=N\OS(=O)(=O)O)c2ccc(Cl)cc21 -6.43%
O=C(C[n+]1ccc(/C=C/c2c[nH]c3ccccc23)c2ccccc21)c1ccccc1 -5.46%

— PubChem BioAssay AID1645887 (National Center for Advancing Translational Sciences (NCATS), 2021)
